Results published in the antibiotic and cytotoxicity screens of Wong et al. (2023).
The other results are listed elsewhere or left out.

System: HepG2
Assay: cytotoxicity call (relative viability < 0.9)
Conditions: 10 µM

Compound | cytotoxicity call
COC(=O)c1c2oc(c1C(=O)OC)C(=O)N(C)Cc1cn(nn1)C[C@@H](C)NC(=O)N[C@H](COC(=O)NCCCCCC(=O)NO)CC2 | inactive
C[C@H](CO)N1C[C@H](C)[C@@H](CN(C)S(C)(=O)=O)Oc2cc(C#CCN(C)C)ccc2S1(=O)=O | inactive
CC(C)C#Cc1ccc2c(c1)O[C@H](CN(C)C(=O)Cc1ccccn1)[C@@H](C)CN([C@@H](C)CO)S2(=O)=O | inactive
CCS(=O)(=O)Nc1ccc2c(c1)C(=O)N(C)[C@H]1CC[C@H](CC(=O)NCc3ccccc3F)O[C@@H]1CO2 | inactive
N#Cc1cc(F)cc(Oc2ccc(S(=O)(=O)C(F)F)c3c2CC(F)(F)[C@@H]3O)c1.N#Cc1cc(F)cc(Oc2ccc(S(=O)(=O)C(F)F)c3c2CC(F)(F)[C@H]3O)c1 | inactive
C[C@H](CO)N1C[C@H](C)[C@@H](CN(C)C(=O)Nc2ccc3c(c2)OCO3)Oc2ncc(-c3cccnc3)cc2C1=O | inactive
C[C@@H]1CN([C@H](C)CO)C(=O)CCCn2cc(nn2)CO[C@@H]1CN(C)S(=O)(=O)c1ccccc1C#N | inactive
C[C@@H]1CN([C@H](C)CO)C(=O)c2cc(NC(=O)Cc3ccccc3)ccc2O[C@@H](C)CCCCO[C@@H]1CN(C)S(=O)(=O)c1cccs1 | inactive
O=C(C[C@@H]1C[C@H]2c3cc(NC(=O)C4CCOCC4)ccc3O[C@H]2[C@@H](CO)O1)NCc1ccc2c(c1)OCO2 | inactive
C[C@H](CO)N1C[C@H](C)[C@@H](CN(C)Cc2ccc(-c3ccccc3)cc2)Oc2ccc(NS(=O)(=O)c3ccccc3)cc2C1=O | inactive
COc1ccc(CN(C)C[C@@H]2OCCCC[C@@H](C)Oc3ccc(NC(=O)NC4CCCCC4)cc3C(=O)N([C@@H](C)CO)C[C@@H]2C)cc1 | inactive
Cc1ccccc1S(=O)(=O)N1C[C@@H](O)COC[C@@H]2O[C@H](CC(=O)NCCc3ccccc3)CC[C@H]21 | inactive
COc1ccc(NC(=O)Nc2ccc3c(c2)C(=O)N([C@@H](C)CO)C[C@@H](C)[C@H](CN(C)S(=O)(=O)c2ccc(F)cc2)OCCCC[C@@H](C)O3)cc1 | inactive
Cc1noc(C)c1S(=O)(=O)Nc1ccc2c(c1)C(=O)N([C@H](C)CO)C[C@@H](C)[C@@H](CN(C)Cc1ccc(C(F)(F)F)cc1)OCCCC[C@H](C)O2 | active
CN[C@@H](C)C(=O)N[C@H]1CN(C(=O)CC(C)C)CC[C@H]2CC[C@@H](C(=O)NC(c3ccccc3)c3ccccc3)N2C1=O | active
Cc1noc(C)c1NC(=O)N(C)C[C@@H]1OCCCC[C@@H](C)Oc2ccc(NC(=O)c3ccccc3)cc2C(=O)N([C@H](C)CO)C[C@H]1C | inactive
Cc1cc([C@@H](O)CCCN)ccc1F | inactive
COc1ccc(S(=O)(=O)Nc2cccc3c2O[C@@H](CN(C)S(=O)(=O)c2ccc(C)cc2)[C@H](C)CN([C@H](C)CO)C3=O)cc1 | inactive
